{"source": "PubChem BioAssay (NCI)", "note": "“And” between values parts separate entries of the source, which are not always exact repeats. Equal entries are not always repeated.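 48-hour exposure; five concentrations; linearly interpolated endpoints. GI50 marks 50% less growth. Definition used: TGI = concentration required for complete inhibition of growth.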 The source made the active and inactive calls. No stated cut-off is given here; in the data, active means GI50 below about 0.43 µM; inactive means the rest. Numbered stars: 1 amine (or outer) side, 2 acyl side, 3 side chain; on linkers, the order of the positions; unused ones are H or OH. Square brackets hold non-standard residues; d marks the D form. Peptide text beside a SMILES is read from it. * marks the point of attachment. ξ: configuration not given here. X49 = CC(C)C[C@H](N[*:1])C1=N[C@H](C(=O)[*:2])CS1; Ile(3ξ) = CCC(C)[C@H](N)C(=O)O; Allyl(1,1-Me2) = C=CC(C)(C)*", "data": [{"test_system": "NCI-H322M lung", "experiment": "NCI tumour cell line growth inhibition, 48 h", "units": {"GI50": "µM"}, "values": [{"smiles": "C(=N\\c1cc2cc(Sc3ccccc3)ccc2[nH]1)/c1ccccc1", "TGI": "> 12.5 µM"}, {"smiles": "FC(F)(F)c1cccc(C=NC23CC4CC(CC(C4)C2)C3)c1", "TGI": "> 100 µM"}, {"smiles": "C=C(C)[C@@H]1/C=C(/C(C)C)CC[C@@]2(C)OC2CC[C@H](C)CC1=O", "note": "(stereo not given in full)", "GI50": 35.6, "TGI": "> 73.5 µM"}, {"smiles": "CCCCCCCCNC(=O)SCCCC", "TGI": "> 100 µM"}, {"smiles": "NCCC1([N+](=O)[O-])C=CN=CC1", "note": "(stereo not given)", "TGI": "> 100 µM"}, {"smiles": "CCCCCCCCCCCCC(=O)CCCCC(=O)O", "TGI": "37.6 µM"}, {"smiles": "O=c1c(-c2ccccc2)c(SCCN2CCCC2)n(-c2ccccc2)c(=S)n1-c1ccccc1", "TGI": "> 100 µM"}, {"smiles": "CC(C)(C)[Si](C)(C)OC1(CCc2ccccc2OS(=O)(=O)C(F)(F)F)CCCC=C1COCc1ccccc1", "note": "(stereo not given)", "TGI": "> 100 µM"}, {"smiles": "COc1cc(C(=O)/C=C/c2c(-c3cccs3)nc3sccn23)cc(OC)c1OC", "GI50": 3.35, "TGI": "86.8 µM"}, {"smiles": "COc1ccc(P2(=S)OCCOP(=S)(c3ccc(OC)cc3)S2)cc1", "note": "(stereo not given)", "TGI": "> 100 µM"}, {"smiles": "[N-]=[N+]=CC(=O)OC1CCOCC1", "TGI": "> 100 µM"}, {"smiles": "COc1cc(Nc2cc(O)c3c(=O)cc(-c4ccccc4)oc3c2)cc(OC)c1", "GI50": 0.653, "TGI": "> 70.1 µM"}, {"smiles": "C=CCN1C(=O)CNC1=S", "TGI": "> 100 µM"}, {"smiles": "CCC(=O)OCC1OC(n2cnc3c(=S)nc(N)[nH]c32)C(OC(=O)CC)C1OC(=O)CC", "note": "(stereo not given)", "GI50": 25.8, "TGI": "> 100 µM"}, {"smiles": "CCOC(=O)C(CC(C)C)NC(=O)C(Cc1ccc(N(CCCl)CCCl)cc1)NC(C)=O", "note": "(stereo not given)", "GI50": 17.4, "TGI": "35.7 µM and 40.2 µM"}, {"smiles": "CC(c1ccccc1)N1C(=O)CSC1=S", "note": "(stereo not given)", "GI50": 5.57, "TGI": "> 44.1 µM"}, {"smiles": "COc1cc2c(Oc3ccc4[nH]c(C)cc4c3F)ncnc2cc1OCCCN1CCCC1", "GI50": 4.99, "TGI": "17.6 µM"}, {"smiles": "NC(N)=Nc1ccc(CC(N)C(=O)NCC(=O)C(CC(=O)O)c2ncc(NC(=O)C(F)(F)F)o2)cc1", "note": "(stereo not given)", "TGI": "> 25 µM"}, {"smiles": "Cn1c(=O)c2[nH]c(CCCCc3nc4ccccc4[nH]3)nc2n(C)c1=O", "TGI": "> 100 µM"}, {"smiles": "O=c1cn[nH]c2nc3ccccc3n12", "TGI": "> 100 µM"}, {"smiles": "COc1cc(/C=C/[N+](=O)[O-])c([N+](=O)[O-])cc1OC", "GI50": 10.7, "TGI": "22.5 µM"}, {"smiles": "CN1CCN(CCCNN)CC1", "TGI": "> 100 µM"}, {"smiles": "COc1ccccc1-c1cc(=O)c2c(C)cc(C)nc2[nH]1", "TGI": "> 100 µM"}, {"smiles": "CC(=O)Nc1cccc2[nH]c3ccccc3c(=O)c12", "TGI": "61.8 µM"}, {"smiles": "CN(C)CCNC(=O)c1cccc2nc3c(ccc4ccccc43)nc12", "TGI": "11.7 µM"}, {"smiles": "Cc1ccc(S(=O)(=O)OCC23CCC(C2)C2CC23)cc1", "note": "(stereo not given)", "TGI": "> 100 µM"}, {"smiles": "NCCCNc1nc2ccccc2c2c(=O)c3cccc(F)c3sc12", "GI50": 1.53, "TGI": "2.93 µM"}, {"smiles": "CC(=O)O[C@H]1CC[C@@]2(C)C(=CC[C@@H]3C2CC[C@]2(C)Nc4c(cnn4-c4ccccc4)CC32)C1", "note": "(stereo not given in full)", "TGI": "27.1 µM"}, {"smiles": "O=c1[nH]cnc2c1ncn2C1CCC(CO)O1", "note": "(stereo not given)", "GI50": "> 1000", "TGI": "> 1000 µM"}, {"smiles": "CCOC(=O)CNC(=O)C(CSCC1C(=O)Nc2ccccc21)NC(=O)CCC(N)C(=O)OCC", "note": "(stereo not given)", "TGI": "18.7 µM"}, {"smiles": "CCOc1cc(NC(C)=O)ccc1C(=O)NNS(=O)(=O)c1ccc(Cl)cc1Cl", "TGI": "> 50 µM"}, {"smiles": "O=C(O)/C(=C/c1ccccc1)c1ccccc1", "TGI": "> 100 µM"}, {"smiles": "CC(CN(C)C)C(C#N)(c1ccccc1)c1ccccc1", "note": "(stereo not given)", "TGI": "> 100 µM"}, {"smiles": "CC1(C)C(=NNC(=S)NN)C(C)(C)C1=NNC(=S)NN", "TGI": "> 100 µM"}, {"smiles": "Cc1cccc(/C=N/NC(=S)Nc2ccc(Cl)cc2)n1", "TGI": "32.1 µM"}, {"smiles": "Cc1ccc(N(CC(=O)Nc2ccc(S(=O)(=O)NC3CCN(C)CC3)cc2)S(=O)(=O)c2ccc(Cl)cc2)cc1", "GI50": 3.38, "TGI": "12.9 µM"}, {"smiles": "COC(=O)C1=CC(=O)OC1(OO)c1ccc(Br)cc1", "note": "(stereo not given)", "TGI": "> 100 µM"}, {"smiles": "CN(C)C1C(CO)OC(n2cnc3c(N)ncnc32)C1O", "note": "(stereo not given)", "TGI": "> 100 µM"}, {"smiles": "CCC1(O)C(=O)OCc2c1cc1n(c2=O)Cc2cc3cc(OC)c(OC)cc3nc2-1", "note": "(stereo not given)", "TGI": "> 100 µM"}, {"smiles": "O=C1C(=O)/C(=C/c2ccccc2)CCCCCC/C1=C/c1ccccc1", "GI50": 16, "TGI": "46.7 µM"}, {"smiles": "C=CC(C)(C)OC[C@@H]1NC(=O)CNC(=O)[C@@H]2CCCN2C(=O)[C@H](C(C)CC)NC(=O)[C@@H]2CSC(=N2)[C@H](CC(C)C)NC1=O", "note": "(stereo not given in full) (cyclo(GS(Allyl(1,1-Me2))[X49][Ile(3ξ)]P))", "TGI": "> 100 µM"}, {"smiles": "Clc1ccc(Cc2nc3cc(Cl)c(Cl)cc3n2CC2CCCN3CCCCC23)cc1Cl", "note": "(stereo not given)", "TGI": "15.8 µM"}, {"smiles": "CCCCN1C=CCN(CCCC)C1", "GI50": "> 100", "TGI": "> 100 µM"}, {"smiles": "NC(=O)C1CCCNC1", "note": "(stereo not given)", "TGI": "> 100 µM"}, {"smiles": "O=C(O)C1(Nc2ccc(Cl)cc2)CCCC1", "TGI": "> 100 µM"}, {"smiles": "COc1cc(C(=O)Nc2cccc3ccccc23)c(Br)c(OC)c1OC", "TGI": "> 100 µM"}, {"smiles": "O=C(CCC(=O)Nc1ccc(Cl)c(Cl)c1)CC(=O)c1ccc(Cl)cc1", "TGI": "> 100 µM"}, {"smiles": "CC1=C(C)C(=O)C(C2=C(C3=CC(=O)C(C)=C(C)C3=O)C(=O)C(C)=C(C)C2=O)=CC1=O", "TGI": "47.5 µM"}, {"smiles": "c1ccc(COC2NCCN2Cc2ccccc2)cc1", "note": "(stereo not given)", "TGI": "> 100 µM"}, {"smiles": "Cn1c(C2CCCc3c2c2ccccc2n3C)cc2ccccc21", "note": "(stereo not given)", "TGI": "> 318 µM"}, {"smiles": "COC(=O)C1=C(C(=O)OC)SC2(S1)C1=C(CCC1)SC(C(=O)OC)=C2C(=O)OC", "TGI": "31.2 µM"}, {"smiles": "N#Cc1cc(-c2ccnc(Nc3ccc(NC(=O)CCl)cc3)n2)ccc1N1CCCC1", "GI50": 6.47, "TGI": "> 25 µM"}, {"smiles": "COc1ccc2nccc(/C=C/c3ccc(N(C)C)cc3)c2c1", "TGI": "> 10 µM"}, {"smiles": "CC(C)(C)c1ccc2c(c1)OP1(Oc3cccc4cccnc34)(O2)Oc2ccc(C(C)(C)C)cc2O1", "TGI": "> 51.1 µM"}, {"smiles": "C#CCN(Cc1cc2c(=O)[nH]c(C)nc2cc1C)c1ccc(C(=O)N[C@@H](CCc2nn[nH]n2)C(=O)O)c(F)c1", "outcome": "inactive"}, {"smiles": "N#CC1=C(N)OC2=C(CCCc3ccc([N+](=O)[O-])cc32)C1c1ccccc1", "note": "(stereo not given)", "TGI": "50.7 µM"}, {"smiles": "CN1C(=O)C(/C=N/NC(=O)c2cccnc2)C(N)N(C)C1=O", "note": "(stereo not given)", "TGI": "> 100 µM"}, {"smiles": "COc1ccccc1/C=C/C(=O)c1ccc(Nc2nc(Nc3ccc(F)cc3)nc(Nc3ccc(F)cc3)n2)cc1", "GI50": 28.2, "TGI": "> 100 µM"}, {"smiles": "Oc1ccc(OCCOc2ccc(O)cc2)cc1", "GI50": 46.2, "TGI": "> 100 µM"}, {"smiles": "CCOC(=O)C1CSCCSC1", "TGI": "> 100 µM"}, {"smiles": "COc1cc(/C=C2\\CCC(C)(CN(C)C)C2=O)cc(OC)c1OC", "note": "(stereo not given)", "TGI": "> 100 µM"}, {"smiles": "CCOC(=O)c1cc(C(=O)c2cc(OC)cc(OC)c2)n2nc(C)ccc12", "GI50": 0.672, "TGI": "> 100 µM"}, {"smiles": "O=C(CCCBr)Nc1ccccc1C#C/C=C\\C#Cc1ccccc1C(F)(F)F", "GI50": 21.3, "TGI": "> 50 µM"}, {"smiles": "O=S1(=O)OCCOS(=O)(=O)C1(I)I", "TGI": "49 µM"}, {"smiles": "O=c1[nH]c2cc([N+](=O)[O-])ccc2nc1/C(=N/Nc1ccccc1)C(O)c1ccc(Cl)cc1Cl", "note": "(stereo not given)", "TGI": "> 100 µM"}, {"smiles": "CC(=O)N(C)C(C(=O)N1CC(C)CC1C(=O)N(C)C1C(=O)NC(CC(C)C)C(=O)N2CC(C)CC2C(=O)NC(CC(C)C)C(=O)N(C)C(C(C)C)C(=O)N2CCCC2C(=O)N(C)C(CC(C)C)C(=O)NCC(=O)OC1C)C(C)C", "note": "(stereo not given)", "TGI": "> 100 µM"}, {"smiles": "COC1=CC(=O)c2c(c(-c3csc(C)n3)cn2C)C1=O", "TGI": "> 65.1 µM"}, {"smiles": "Cc1cccc(NS(=O)(=O)c2ccc3c(c2)OCCOCCOCCOCCO3)c1", "TGI": "> 100 µM"}, {"smiles": "O=C1c2ccccc2C(=O)N1[C@@H](Cc1ccccc1)C(=O)n1cccc1CO", "TGI": "> 100 µM"}, {"smiles": "CCOC(=O)c1c(NNc2ccccc2)nc2ccccc2c1-c1ccccc1", "TGI": "> 100 µM"}, {"smiles": "C#CC1(O)C(COP(=O)(O)OC(COCCCCCCCCCCCCCCCCCC)COP(=O)(O)OCC2OC(n3cc(C)c(=O)[nH]c3=O)CC2N=[N+]=[N-])OC(n2ccc(N)nc2=O)C1O", "note": "(stereo not given)", "TGI": "> 19.8 µM"}, {"smiles": "COc1cccc(-c2nc(-c3cnccn3)n(C3OC(CO)C(O)C3O)n2)c1", "note": "(stereo not given)", "TGI": "> 100 µM"}]}]}
